Assay results as given in the supplement of paper PMC3334620.
Over roughly 33,000 sequences, “E-score (-0.5 to 0.5)” has its median near -0.017; the highest 2% begin near 0.3. This is one part of the list.

These sequences were tested against T1, Sut1 (UniProt P53032) (assay: PBM E-score (8-mer binding enrichment) (E-score (-0.5 to 0.5)); higher = stronger / more preferred TF binding; most listed sequences are background and not binding sites). Settings: protein concentration: 200 nM; construct: GST-full length.
T1 sequence: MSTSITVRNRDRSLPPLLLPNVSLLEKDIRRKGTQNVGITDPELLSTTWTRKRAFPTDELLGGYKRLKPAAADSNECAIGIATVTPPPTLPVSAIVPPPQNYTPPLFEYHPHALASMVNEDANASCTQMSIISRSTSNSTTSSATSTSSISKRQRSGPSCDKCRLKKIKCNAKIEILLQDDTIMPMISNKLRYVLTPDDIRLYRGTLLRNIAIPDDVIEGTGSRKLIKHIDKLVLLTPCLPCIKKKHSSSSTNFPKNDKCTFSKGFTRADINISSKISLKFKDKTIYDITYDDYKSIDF
Experimental: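 Universal 'all 10-mer' protein binding microarrays (Agilent AMADID 015681) probed with GST-tagged S. cerevisiae TFs (full-length or DBD) made by in vitro transcription/translation (PURExpress), about 100-200 nM. Bound TF was detected with fluorescent anti-GST. Each ungapped 8-mer (which stands for itself and its reverse complement) is scored by the PBM enrichment score (E-score), a modified Wilcoxon-Mann-Whitney statistic from -0.5 to +0.5, computed with the Universal PBM Analysis Suite. Scale: above 0.35 generally sequence-specific binding.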

Sequence	PBM E-score
ATATTTTC	0.183
AGTAAATA	0.282
AGATAGCG	-0.0403
AACGACCG	-0.21
ATCTCTGC	-0.124
GTGCAGTA	-0.171
GAGCTGGA	-0.142
GCCAACAC	0.0788
CAATCTTC	0.148
TGGTTTAA	0.264
ATTCCCCC	-0.0696
ATCTCGTG	-0.147
ATCACTCC	0.102
ATACGCAG	-0.2
CACGCCCC	-0.118
CGACTGAC	-0.124
GATAGCTA	-0.127
CAAATATC	0.202
GTACCAGA	-0.206
ACGCTTCT	-0.0542
CCCGTACA	-0.288
ATGAACCC	0.00896
GGTGCAGA	-0.28
CGGGAGCA	-0.0121
CACTTTGC	0.0519

Sequence	PBM E-score
GCAGCAAC	-0.133
TATGTCCA	-0.114
CTCCCTGA	-0.313
ATATTGAG	0.181
AAGCTAAC	0.0679
AGACCCAT	-0.19
ACGGAGAA	0.362
AATTGCCT	-0.00731
CCGTCTTC	0.101
CACCAAAG	0.0334
CTACCTGA	-0.128
GATGCAGC	-0.0635
CAATTTCC	0.126
ATACATCC	0.00718
CAACTAGG	-0.0692
AGCGCTGG	-0.185
AATCCATT	0.104
AACTTCCA	0.06
AGGCCGAT	-0.0189
CAACCGCA	0.0447
ATGATCTC	-0.0262
CACCACCC	-0.0706
CGTACTTA	0.027
GACCGCCA	-0.216
AACTTGGG	-0.0482

Sequence	PBM E-score
AAGCTCGC	0.0319
CGTGAGTA	-0.055
GAGAAGGC	-0.0615
AAATAGTC	0.137
GGAATCTA	0.122
CACTCCCC	-0.084
CCATGGGG	-0.252
CGAGGTGA	0.0936
CACTCTGG	-0.263
AGCCAATA	-0.0262
CATATTGG	0.112
CTTGGCGC	-0.0987
CGATAGAA	0.0498
CAGTTCGC	0.0244
GAAATCAA	0.0471
AATAAAGC	0.188
AGGATCGG	-0.00265
AGACCCGC	-0.269
TAAATCAA	0.269
GATCAGCA	-0.0614
ACCGGAGG	0.133
AGACCCCA	-0.173
ACGGATCG	-0.0493
ACAGAGGA	-0.211
TGAGCCCA	-0.251

Sequence	PBM E-score
ATGAGACG	-0.112
ACGGTCTA	-0.0922
TGCTTACA	-0.174
GCACGGAC	0.289
ACGTATTG	0.0683
AGCAACAG	0.0514
CGCGTCTA	-0.0249
GCTCCGGA	0.442
ACAAGAGT	0.166
ATAAGAAG	0.178
ATGTTCAG	-0.139
CTGACACA	-0.147
CACTGTAA	0.104
CATTACTA	0.0871
ATACGCCC	-0.112
GAGGGGGC	-0.388
CAAGCAGC	-0.0879
ATCCACGA	0.0124
AGGTTCTA	-0.042
GGAGTTAA	0.337
ATCAGTGA	-0.071
AAAATGCT	0.136
CGATGTCC	0.164
CCTATGAC	-0.2
CGTGGTCC	-0.246

Sequence	PBM E-score
AGAAGGTA	0.124
AGTTGAGC	-0.191
CCACAGGG	-0.243
CTGGCGAA	-0.195
AAGTCGAG	-0.0466
GGCCCGCC	-0.386
CAGTCTTA	0.0114
GTTTAGAA	0.244
GTTCATTA	0.107
AACTAAGC	0.115
GAGACCCA	-0.139
ACCAGGTG	-0.283
CATTGCTC	0.1
GAAAATAA	0.229
ATTCGTTC	0.242
GAAAACTC	0.263
AGAAGGAC	-0.0297
CTGAGATC	-0.209
ATCTGAGC	0.113
ATTTCAAC	0.191
CGAGGCAG	-0.132
TCATGCGA	-0.129
ACGACGGA	0.183
CAGGGAGA	-0.138
TACCTCTA	0.0421

Sequence	PBM E-score
CTCCGAGA	0.459
AAGTTGGG	-0.192
AACTCTGC	-0.0826
ATTTCGCG	0.166
GGAAACTA	-0.115
CAACCCGA	-0.0397
AGGAGTGA	-0.0299
ATTAATTA	0.188
AAACTACC	0.121
CGTTTCGA	-0.112
ACGTGGCC	-0.346
AAACACGG	-0.0101
ACGCGAAG	-0.147
AGAGGGGG	-0.322
ACATGGCA	-0.00576
ACATTGTG	-0.221
AACCCCAT	-0.0232
CAAGCACG	-0.0723
GACTCCCC	-0.181
AACCCCAC	-0.279
GCGGCGTA	0.00609
AAGAATGA	0.135
GCGACAGC	-0.173
AAGATGCT	0.13
ACTCCAGC	-0.0207

Sequence	PBM E-score
CCAATCCA	-0.0273
CCCGTCCG	-0.304
AACCTTGT	-0.217
CAGGGGTA	-0.334
CGCTAGCG	-0.224
CGGCCCAG	0.0003
CCTCGACG	-0.129
ACCACTAG	-0.0972
ACCGTCAT	-0.13
TCTTCCCA	-0.189
CAATTTTA	0.234
AGGGTTGG	-0.0796
TACCGATA	0.175
AATTGTCT	-0.0132
GCCTCAGA	-0.168
CGAACTCC	0.391
CAACCCCG	0.355
GCGGACAC	-0.102
GCCTATAA	-0.0483
AACCCAGC	-0.212
AGAATTTG	0.104
GTGTCAAC	-0.221
